# Laboratory results published in the supplement of paper PMC8728848.
# The list shows a part of the results.
# B1: Cp ZmpB (Clostridium perfringens), Q0TR08 (protein)
# chain: MNKRKIAAIILATMITNLSATTIDVLAQELNTKNNSKVEVSHDDESHQARVSKFDLYNSDKLDAYNQEFQVSRSNIKSINNNGGKYNSSTIDKAIDGNLETHWETGKPNDANFTNEVVVTFNEITNIDRIVYSARRDSARGKGFAKEFEIYASLKDEGDDFNLVSSGEYTESTRDLVEIKFNPTDFKRLKFKFKKADQNWASAAEFMFYKEDKLNEKFNGLFTDSSMNKVSEEFNTLEKLNAFENELKDHPIYDLYKEGLNNARAILTETSENPTKATLGQITYNLNDDYNNQYRMPYKNIKAIKNNGRHYAAQNIEKAIDNDVNTYWETGTLNSSSFNNEVEVEFNDLVTLDRIVYGSRQSDLKGFAEEVYIYASRTSKGDTYKLVATGAHEATKGLVEAKFEPTEFKRVKFKFKKSKQNSATLNELMFYKPDEVYSSIPKLFTDGTMSELSEEFNSLEKINAFKEKAKNHPLYNDFNETIELAESLISNPRKEDVLELEMRGDSISEAKKRKVWNFQDWQITGLSARAGDKITVYVDVAEGDPTPTLLYKQSLTQHGGATSFQLKPGKNEITIPEINYESNGIPKDVIQGGDLFFTNYKSDSQKRAPKVRIEGASKYPVFILGKSDENEVMKELEAYVEKIKAEPKTTPNIFAVSSNKSLEFVQATYALDWYKKNNKTPKYTAEQWDQYIADAMGFWGFDNSKDVNSDFNFRIMPMVKNLSGGAFMNAGNGVIGIRPGNQDAILAANKGWGVAHELGHNFDTGGRTIVEVTNNMMPLFFESKYKTKTRITDQNIWENNTYPKVGLDDYSNNELYNKADSTHLAQLAPLWQLYLYDNTFYGKFERQFRERDFGNKNREDIYKSWVVAASDAMELDLTEFFARHGIRVDDKVKEDLAKYPKPDKKIYYLNDLAMNYKGDGFTENAKVSVSTSGSNGNIKLSFSVDDENKDNILGYEIRRDGKYVGFTSNDSFVDTKSNLDEDGVYVVTPYDRKLNTLNPIEVNALQPTLSVNPVITLALGEEFNEEEYIVAKDIKGNSLSESVKVKSSNVNTSKVGEYEVLYSLEDSKGNEYTKTSKVNVVSRKEYMSDLTPKQSSNGWGTVRKDKSISGGVIGLTRDGDFVDYNKGLGLHSNAEYVYDLEGKDYDYFESYVGVDKAMSSRPASSVIFKVLVDGEEKFNSGVMRSTTPQKYVKVDVKNAKELKLIVNDAGDGDSSDHASFGDAKLATLSSKPIIKGENLAYSMDEKVDLMKGITATDIEDGNITSKVQIKSSDFVEGKSGIFTVVYSVTDSDGLTSECSRTIAVTDKETQLSDLNWKSATIGSGSVRKDRAVSGNQIRLLNEDNSVETFAKGIGTHSYSEIVYNSEGYDIFDTWVGIDRHVADKKVSSVKFKVYVDGELKAETDVMRIDTPKKRLVVDVRNSKEIKLVVDVADNGNNWDHADWADAKFRNLAEYDASELNKAIEEAKKLDLNNYTEESSEALKNAISKGEEALLSKDKETINSALEELNKEMNSLVKVDLNAVINIPDKYLLKSIQNQLNKTGDITLGDMYSLTTLTLSGVEDLTGLENAKNLETLNMDYNEVKDLRPLSKLKKLNTLNAQEQFIAAGELKPSNGKVIGDSKVYNREGKNVAKTIRVVDKNGNTILEQDAKDEFTINTKDLSSGLYGVHVLFEDEGFSGVMFYLFNV
# Key:
# Assay in all cases: glycan array binding signal (z-score within array); higher = stronger binding
# Settings in all cases: glycan notation: IUPAC condensed, linker removed
# [1] = target: Gal(b1-4)GlcNAc(b1-6)Gal(b1-4)GlcNAc
# In short: (§1)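 The binding signal is a Z-score computed within each array. Data were drawn from 3228 arrays in the Consortium for Functional Glycomics database, restricted to those with a known protein sequence. Scores were averaged over arrays of the same protein sequence at different concentrations or buffers, and over linkers, and negative values can be taken as non-binding.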
# [2] = target: Gal(b1-4)GlcNAc(b1-6)GalNAc
# In short: as §1
# [3] = target: Gal(b1-4)GlcNAc(b1-6)[Gal(b1-3)]GalNAc
# In short: as §1
# [4] = target: Gal(b1-4)GlcNAc(b1-6)[Gal(b1-4)GlcNAc(b1-3)]GalNAc
# In short: as §1
# [5] = target: Gal(b1-4)GlcNAc6P
# In short: as §1
# [6] = target: Gal(b1-6)Gal
# In short: as §1
# [7] = target: Gal3S(b1-3)GalNAc
# In short: as §1
# [8] = target: Gal3S(b1-3)GlcNAc
# In short: as §1
# [9] = target: Gal3S(b1-3)[Fuc(a1-4)]GlcNAc
# In short: as §1
# [10] = target: Gal3S(b1-4)Glc
# In short: as §1
# [11] = target: Gal3S(b1-4)Glc6S
# In short: as §1
# [12] = target: Gal3S(b1-4)GlcNAc
# In short: as §1
# [13] = target: Gal3S(b1-4)[Fuc(a1-3)]Glc6S
# In short: as §1
# [14] = target: Gal3S(b1-4)[Fuc(a1-3)]GlcNAc
# In short: as §1
# [15] = target: Gal3S(b1-4)[Fuc(a1-3)]GlcNAc6S
# In short: as §1
# [16] = target: Gal3S4S(b1-4)GlcNAc
# In short: as §1
# [17] = target: Gal3S6S(b1-4)GlcNAc
# In short: as §1
# [18] = target: Gal3S6S(b1-4)GlcNAc6S
# In short: as §1
# [19] = target: Gal4S(b1-4)GlcNAc
# In short: as §1
# [20] = target: Gal4S6S(b1-4)GlcNAc
# In short: as §1
# [21] = target: Gal6P(b1-4)GlcNAc
# In short: as §1
# [22] = target: Gal6S(b1-3)GlcNAc
# In short: as §1
# [23] = target: Gal6S(b1-3)GlcNAc6S
# In short: as §1
binder,measurement,setting,value
B1,glycan array binding signal (z-score),[1],-0.138
same,glycan array binding signal (z-score),[2],0.019
same,glycan array binding signal (z-score),[3],-0.007
same,glycan array binding signal (z-score),[4],0.086
same,glycan array binding signal (z-score),[5],0.166
same,glycan array binding signal (z-score),[6],-0.09
same,glycan array binding signal (z-score),[7],0.011
same,glycan array binding signal (z-score),[8],-0.111
same,glycan array binding signal (z-score),[9],-0.055
same,glycan array binding signal (z-score),[10],0.05
same,glycan array binding signal (z-score),[11],0.365
same,glycan array binding signal (z-score),[12],0.198
same,glycan array binding signal (z-score),[13],0.061
same,glycan array binding signal (z-score),[14],-0.002
same,glycan array binding signal (z-score),[15],-0.035
same,glycan array binding signal (z-score),[16],0.473
same,glycan array binding signal (z-score),[17],-0.199
same,glycan array binding signal (z-score),[18],1.17
same,glycan array binding signal (z-score),[19],-0.125
same,glycan array binding signal (z-score),[20],0.461
same,glycan array binding signal (z-score),[21],-0.373
same,glycan array binding signal (z-score),[22],-0.331
same,glycan array binding signal (z-score),[23],0.343
